The record followed here is publication PMC12820563, “FoxP3 forms a head-to-head dimer in vivo and stabilizes its multimerization on adjacent microsatellites”.

The list shows a part of the results.

The assay addresses T1, MBP-FoxP1dN (Mus musculus, UniProt P58462 326-579).
T1 sequence: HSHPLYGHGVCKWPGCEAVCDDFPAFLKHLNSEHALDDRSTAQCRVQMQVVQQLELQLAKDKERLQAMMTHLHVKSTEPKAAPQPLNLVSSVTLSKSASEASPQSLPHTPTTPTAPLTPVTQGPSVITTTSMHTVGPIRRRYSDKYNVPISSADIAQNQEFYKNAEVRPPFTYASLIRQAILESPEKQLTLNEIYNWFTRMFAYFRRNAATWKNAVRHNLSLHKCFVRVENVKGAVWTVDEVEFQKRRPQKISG
In words: PD-seq (MBP pull-down with sequencing); 20 mM Tris-HCl pH 7.5, 100 mM NaCl, 1.5 mM MgCl2, 0.4 uM protein, 0.1 uM dsDNA library, 30 min, room temperature, amylose pull-down; high values mean tight binding. As to conditions: protein: recombinant; tags: His6-MBP; chain copies: 2; dsDNA, one strand shown. In a few lines:
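The N-terminus-lacking fragment of mouse FoxP3 or FoxP1 carried a His6-MBP tag and was expressed in E. coli. At 0.4 µM it was incubated with 0.1 µM Klenow-filled degenerate double-stranded DNA library for 30 min at room temperature in Tris pH 7.5 buffer with NaCl and MgCl2, and complexes were caught on amylose resin, washed three times, released with proteinase K, PCR-barcoded and Illumina-sequenced. Binding is reads-per-million enrichment of pull-down over input with replicates pooled.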
“GATGATTGTTCTCCCAGCTGATGAATTTGTGGGATCGAGTAAACAAATTTTCCTAATCTTTCTGTTCAAGCGCCATCTAC”: the binding signal was 1.06 RPM ratio (pull-down/input). Take “GATGATTGTTCTCCCAGCTGATGAATTAAAGCGATCGAGTAAACAAATTTTCCTAATCTTTCTGTTCAAGCGCCATCTAC”: the binding signal was 1.04 RPM ratio (pull-down/input). Consider “GATGATTGTTCTCCCAGCTGATGAATTGAAGGATTCGAGTAAACAAATTTTCCTAATCTTTCTGTTCAAGCGCCATCTAC”, for which the binding signal is 0.821 RPM ratio (pull-down/input). Take “GATGATTGTTCTCCCAGCTGATGAATTGAACTCTTCGAGTAAACAAATTTTCCTAATCTTTCTGTTCAAGCGCCATCTAC”: the binding signal was 0.871 RPM ratio (pull-down/input). Take “GATGATTGTTCTCCCAGCTGATGAATTGGCCACTTCGAGTAAACAAATTTTCCTAATCTTTCTGTTCAAGCGCCATCTAC”: the binding signal is 0.9 RPM ratio (pull-down/input). Regarding “GATGATTGTTCTCCCAGCTGATGAATTAAAATTATCGAGTAAACAAATTTTCCTAATCTTTCTGTTCAAGCGCCATCTAC”, the binding signal is 0.998 RPM ratio (pull-down/input).

In the case of “GATGATTGTTCTCCCAGCTGATGAATTCAATGGTTCGAGTAAACAAATTTTCCTAATCTTTCTGTTCAAGCGCCATCTAC”, the binding signal was 0.854 RPM ratio (pull-down/input).

Consider “GATGATTGTTCTCCCAGCTGATGAATTTCCTAATTCGAGTAAACAAATTTTCCTAATCTTTCTGTTCAAGCGCCATCTAC”, for which the binding signal is 0.852 RPM ratio (pull-down/input). Consider “GATGATTGTTCTCCCAGCTGATGAATTGAGGATCTCGAGTAAACAAATTTTCCTAATCTTTCTGTTCAAGCGCCATCTAC”, for which the binding signal was 0.758 RPM ratio (pull-down/input). Regarding “GATGATTGTTCTCCCAGCTGATGAATTGGTAGCTTCGAGTAAACAAATTTTCCTAATCTTTCTGTTCAAGCGCCATCTAC”, the binding signal is 0.901 RPM ratio (pull-down/input). On to “GATGATTGTTCTCCCAGCTGATGAATTCAACTAATCGAGTAAACAAATTTTCCTAATCTTTCTGTTCAAGCGCCATCTAC”, for which the binding signal is 1.02 RPM ratio (pull-down/input). “GATGATTGTTCTCCCAGCTGATGAATTGCCACTATCGAGTAAACAAATTTTCCTAATCTTTCTGTTCAAGCGCCATCTAC”: the binding signal is 1.14 RPM ratio (pull-down/input). As to “GATGATTGTTCTCCCAGCTGATGAATTTTTACGATCGAGTAAACAAATTTTCCTAATCTTTCTGTTCAAGCGCCATCTAC”, the binding signal was 0.896 RPM ratio (pull-down/input). For “GATGATTGTTCTCCCAGCTGATGAATTCATGGAATCGAGTAAACAAATTTTCCTAATCTTTCTGTTCAAGCGCCATCTAC”, the binding signal was 1.07 RPM ratio (pull-down/input).

Turning to “GATGATTGTTCTCCCAGCTGATGAATTCCCTCGATCGAGTAAACAAATTTTCCTAATCTTTCTGTTCAAGCGCCATCTAC”, the binding signal is 0.83 RPM ratio (pull-down/input). Regarding “GATGATTGTTCTCCCAGCTGATGAATTGAAAGTTTCGAGTAAACAAATTTTCCTAATCTTTCTGTTCAAGCGCCATCTAC”, the binding signal is 0.949 RPM ratio (pull-down/input).

Turning to “GATGATTGTTCTCCCAGCTGATGAATTCCCTGTTTCGAGTAAACAAATTTTCCTAATCTTTCTGTTCAAGCGCCATCTAC”, the binding signal was 0.907 RPM ratio (pull-down/input). Then “GATGATTGTTCTCCCAGCTGATGAATTTGCATTATCGAGTAAACAAATTTTCCTAATCTTTCTGTTCAAGCGCCATCTAC”, with 1.49 RPM ratio (pull-down/input); and “GATGATTGTTCTCCCAGCTGATGAATTAGCAAAGTCGAGTAAACAAATTTTCCTAATCTTTCTGTTCAAGCGCCATCTAC”, with 0.876 RPM ratio (pull-down/input).

As for “GATGATTGTTCTCCCAGCTGATGAATTTTGAATTTCGAGTAAACAAATTTTCCTAATCTTTCTGTTCAAGCGCCATCTAC”, the binding signal was 0.984 RPM ratio (pull-down/input). For the sequence “GATGATTGTTCTCCCAGCTGATGAATTAGCACAGTCGAGTAAACAAATTTTCCTAATCTTTCTGTTCAAGCGCCATCTAC”, the binding signal was 0.971 RPM ratio (pull-down/input). To “GATGATTGTTCTCCCAGCTGATGAATTGGCCTTCTCGAGTAAACAAATTTTCCTAATCTTTCTGTTCAAGCGCCATCTAC” belongs 0.772 RPM ratio (pull-down/input).

“GATGATTGTTCTCCCAGCTGATGAATTGTCCATGTCGAGTAAACAAATTTTCCTAATCTTTCTGTTCAAGCGCCATCTAC”: the binding signal is 0.983 RPM ratio (pull-down/input).

On to “GATGATTGTTCTCCCAGCTGATGAATTTGTGTACTCGAGTAAACAAATTTTCCTAATCTTTCTGTTCAAGCGCCATCTAC”, for which the binding signal is 2.09 RPM ratio (pull-down/input). Regarding “GATGATTGTTCTCCCAGCTGATGAATTTTAATGATCGAGTAAACAAATTTTCCTAATCTTTCTGTTCAAGCGCCATCTAC”, the binding signal is 1.06 RPM ratio (pull-down/input). To “GATGATTGTTCTCCCAGCTGATGAATTATACTCTTCGAGTAAACAAATTTTCCTAATCTTTCTGTTCAAGCGCCATCTAC” belongs 0.961 RPM ratio (pull-down/input). In the case of “GATGATTGTTCTCCCAGCTGATGAATTTTGCTTATCGAGTAAACAAATTTTCCTAATCTTTCTGTTCAAGCGCCATCTAC”, the binding signal was 2.09 RPM ratio (pull-down/input). To “GATGATTGTTCTCCCAGCTGATGAATTGTTTTTATCGAGTAAACAAATTTTCCTAATCTTTCTGTTCAAGCGCCATCTAC” belongs 2.19 RPM ratio (pull-down/input); to “GATGATTGTTCTCCCAGCTGATGAATTGACGTTGTCGAGTAAACAAATTTTCCTAATCTTTCTGTTCAAGCGCCATCTAC”, 1.35 RPM ratio (pull-down/input); to “GATGATTGTTCTCCCAGCTGATGAATTTGGAGGTTCGAGTAAACAAATTTTCCTAATCTTTCTGTTCAAGCGCCATCTAC”, 0.79 RPM ratio (pull-down/input). Turning to “GATGATTGTTCTCCCAGCTGATGAATTCGGAGGGTCGAGTAAACAAATTTTCCTAATCTTTCTGTTCAAGCGCCATCTAC”, the binding signal is 0.677 RPM ratio (pull-down/input). As for “GATGATTGTTCTCCCAGCTGATGAATTGGGGATGTCGAGTAAACAAATTTTCCTAATCTTTCTGTTCAAGCGCCATCTAC”, the binding signal was 0.865 RPM ratio (pull-down/input). Turning to “GATGATTGTTCTCCCAGCTGATGAATTGATTACGTCGAGTAAACAAATTTTCCTAATCTTTCTGTTCAAGCGCCATCTAC”, the binding signal was 1.39 RPM ratio (pull-down/input). To “GATGATTGTTCTCCCAGCTGATGAATTGCCATAGTCGAGTAAACAAATTTTCCTAATCTTTCTGTTCAAGCGCCATCTAC” belongs 0.958 RPM ratio (pull-down/input); to “GATGATTGTTCTCCCAGCTGATGAATTTGACACATCGAGTAAACAAATTTTCCTAATCTTTCTGTTCAAGCGCCATCTAC”, 0.966 RPM ratio (pull-down/input); to “GATGATTGTTCTCCCAGCTGATGAATTCATAGGGTCGAGTAAACAAATTTTCCTAATCTTTCTGTTCAAGCGCCATCTAC”, 0.779 RPM ratio (pull-down/input). With “GATGATTGTTCTCCCAGCTGATGAATTTCCCATTTCGAGTAAACAAATTTTCCTAATCTTTCTGTTCAAGCGCCATCTAC”, the binding signal was 0.825 RPM ratio (pull-down/input).

On to “GATGATTGTTCTCCCAGCTGATGAATTCCTTTAATCGAGTAAACAAATTTTCCTAATCTTTCTGTTCAAGCGCCATCTAC”, for which the binding signal is 0.94 RPM ratio (pull-down/input). As for “GATGATTGTTCTCCCAGCTGATGAATTCCACTGTTCGAGTAAACAAATTTTCCTAATCTTTCTGTTCAAGCGCCATCTAC”, the binding signal was 0.892 RPM ratio (pull-down/input). As to “GATGATTGTTCTCCCAGCTGATGAATTGGACGGTTCGAGTAAACAAATTTTCCTAATCTTTCTGTTCAAGCGCCATCTAC”, the binding signal is 0.811 RPM ratio (pull-down/input).
